The campaign covered roughly 310,000 compounds. About 14,000 (4.5%) showed an effect of 50% or more. The effect is printed as a negative number. The list shows a part of the results.
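Also: peak tail current of the secondary pulse compared with the same well before compound.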

human ether-à-go-go-related gene (hERG) potassium channel, sequence (Q12809 whole entry, looked up): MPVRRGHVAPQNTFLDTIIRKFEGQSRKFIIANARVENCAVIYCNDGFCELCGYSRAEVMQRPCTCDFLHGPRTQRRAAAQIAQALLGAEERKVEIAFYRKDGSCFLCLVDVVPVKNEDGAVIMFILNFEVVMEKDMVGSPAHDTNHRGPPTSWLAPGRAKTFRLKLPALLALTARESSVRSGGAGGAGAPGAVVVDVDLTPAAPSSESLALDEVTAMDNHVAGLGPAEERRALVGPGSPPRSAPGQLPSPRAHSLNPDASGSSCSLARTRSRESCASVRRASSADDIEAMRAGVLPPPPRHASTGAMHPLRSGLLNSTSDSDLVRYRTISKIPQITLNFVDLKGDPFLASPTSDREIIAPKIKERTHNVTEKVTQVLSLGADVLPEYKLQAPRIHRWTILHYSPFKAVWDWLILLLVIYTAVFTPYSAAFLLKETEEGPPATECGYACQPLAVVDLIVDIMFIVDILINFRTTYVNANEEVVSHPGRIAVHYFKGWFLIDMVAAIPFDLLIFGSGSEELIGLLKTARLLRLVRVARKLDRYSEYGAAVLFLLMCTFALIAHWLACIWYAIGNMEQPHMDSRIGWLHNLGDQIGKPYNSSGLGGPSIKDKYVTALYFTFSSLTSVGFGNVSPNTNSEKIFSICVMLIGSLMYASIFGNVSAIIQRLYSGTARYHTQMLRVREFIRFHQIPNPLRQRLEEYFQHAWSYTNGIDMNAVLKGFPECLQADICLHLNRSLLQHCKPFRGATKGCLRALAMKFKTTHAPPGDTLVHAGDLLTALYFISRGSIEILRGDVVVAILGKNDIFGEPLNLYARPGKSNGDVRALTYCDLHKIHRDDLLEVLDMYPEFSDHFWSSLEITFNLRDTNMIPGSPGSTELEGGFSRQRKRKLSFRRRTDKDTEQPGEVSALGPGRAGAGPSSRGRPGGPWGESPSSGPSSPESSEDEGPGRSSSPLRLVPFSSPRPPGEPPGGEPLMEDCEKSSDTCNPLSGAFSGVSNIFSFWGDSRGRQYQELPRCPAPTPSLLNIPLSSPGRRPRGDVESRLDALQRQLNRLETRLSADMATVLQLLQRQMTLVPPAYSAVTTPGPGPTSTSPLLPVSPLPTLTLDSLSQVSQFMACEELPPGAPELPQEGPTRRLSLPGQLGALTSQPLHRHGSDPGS

The assay has as its target human ether-à-go-go-related gene (hERG) potassium channel (human, UniProt Q12809). The assay can be described thus: primary screen, population patch clamp on CHO cells stably expressing hERG.
Consider `O=C(NCc1ccccc1)c1noc2c1CCCC2`, for which the “hERG current change (%, negative = inhibition) at 10uM” value is on record as -0.175%.
The figure for `CC(=O)N1c2ccccc2C(CBr)=CC1(C)C` is 8.96%.
The figure for `COc1ccc(-n2c(SCC(N)=O)nnc2-c2ccccc2F)cc1` is 2.56%; for `C(=C\c1ccccc1)/C=N/Nc1nc(N2CCCCC2)nc(N2CCCCC2)n1` it is 5.31%; for `COc1ccc(-c2cc(C(=O)OCC(=O)c3ccc(C)c([N+](=O)[O-])c3)c3ccccc3n2)cc1` it is 5.61%.
The figure for `c1ccc2c(c1)Oc1cccc3cccc-2c13` is 20.1%; for `Cc1c(C(=O)N2CCN(CCc3ccccn3)CC2)oc2ccc(Cl)cc12` it is -81.1%; for `CC(C)(C)C(=O)/C=c1\[nH]c(=O)/c(=C\c2ccc(F)cc2)s1` it is -4.36%.
Take `Cc1nn(-c2cc(N3CCOCC3)ccc2[N+](=O)[O-])c(=O)c2ccccc12`: the “hERG current change (%, negative = inhibition) at 10uM” value is recorded as -4.66%.
As for `Cc1csc(NC(=O)c2sccc2C)n1`, the “hERG current change (%, negative = inhibition) at 10uM” value worked out at 12.7%.
Consider `COc1cc(/C=N/NC(=O)CCn2c3ccccc3c3ccccc32)ccc1O`, for which the “hERG current change (%, negative = inhibition) at 10uM” value is reported as -2.82%.
With `CCN(CC)C(=O)CSc1nc2sc(C)c(C)c2c(=O)[nH]1`, the “hERG current change (%, negative = inhibition) at 10uM” value is recorded as -7.52%.
`Nc1ccccc1C(=O)NNc1c2ccccc2nc2ccccc12`: the “hERG current change (%, negative = inhibition) at 10uM” value was 13.5%.
Take `O=C(/C=C/Nc1ccc(Br)cc1F)c1ccco1`: the “hERG current change (%, negative = inhibition) at 10uM” value is given as 27.6%.
`COc1ccc(NC(=O)COC(=O)c2c(F)cccc2Cl)cc1OC`: the “hERG current change (%, negative = inhibition) at 10uM” value is recorded as -12.7%.
For the compound `CCOC(=O)c1ccc2c(c1)C1C=CCC1C(C(=O)O)N2` (centres unmarked), the “hERG current change (%, negative = inhibition) at 10uM” value amounted to 15.6%.
As to `CCN(C(=O)Cn1cc(C(C)=O)c2ccccc21)c1ccccc1`, the “hERG current change (%, negative = inhibition) at 10uM” value is given as 23.2%.
On to `O=C(CSc1ccccc1[N+](=O)[O-])NC1CCS(=O)(=O)C1` (centres unmarked), for which the “hERG current change (%, negative = inhibition) at 10uM” value is 31.9%.
`COCCNC(=S)N1CCc2cc(OC)c(OC)cc2C1c1cccs1` (centres unmarked): the “hERG current change (%, negative = inhibition) at 10uM” value is given as -13.9%.
The figure for `O=C(NCc1ccccn1)c1cc2n(n1)C(C(F)(F)F)CC(c1ccco1)N2` (centres unmarked) is 9.76%; for `O/N=C/c1cn(-c2ccccc2)nc1-c1cccnc1` it is -31.6%; for `COc1ccccc1NC(=O)CSc1nnc(C2CCCCC2)n1N` it is 5.54%.
For the compound `COC(=O)c1ccccc1NC(=O)CSc1nnc(-c2ccc(OC)cc2)n1C`, the “hERG current change (%, negative = inhibition) at 10uM” value is on record as -49.6%.
For `Cc1ccc2nc(SCC(=O)N(C)C3CCS(=O)(=O)C3)[nH]c2c1` (centres unmarked), the “hERG current change (%, negative = inhibition) at 10uM” value was -0.59%.
As to `Cc1cccc(-c2noc(CNC(=O)COc3ccccc3C)n2)c1`, the “hERG current change (%, negative = inhibition) at 10uM” value is -1.88%.
With `O=C(NCC1CCCO1)c1cccc(Oc2ccccc2)c1` (centres unmarked), the “hERG current change (%, negative = inhibition) at 10uM” value is on record as -37.5%.
`COc1ccc(C(=O)Oc2cc(C)[nH]c(=O)c2[N+](=O)[O-])c(OC)c1`: the “hERG current change (%, negative = inhibition) at 10uM” value was 11.9%.
The figure for `COc1cc2nc(CN3CC=C(c4ccccc4)CC3)[nH]c(=O)c2cc1OC` is 8.47%; for `O=C(CCCN1C(=O)/C(=C/c2ccccc2)SC1=S)NCCCn1ccnc1` it is -59.9%.
The figure for `CC(=O)c1c(C)[nH]c(C(=O)NC2CCSc3ccccc32)c1C` (centres unmarked) is -7.32%; for `COc1ccccc1C(C(=O)NCc1ccccc1)N(C(=O)c1csnn1)C1CC1` (centres unmarked) it is -1.7%; for `CCN(CC)C(=O)Oc1cc2c(-c3cc4cccc(OC)c4o3)cc(=O)oc2cc1C` it is 9.85%.
As to `NC(=O)CC(NC(=O)c1ccc(Br)cc1)c1ccc(NCc2ccc(F)c(F)c2)c([N+](=O)[O-])c1` (centres unmarked), the “hERG current change (%, negative = inhibition) at 10uM” value turned out to be 2.84%.
The figure for `Cn1c(SCC#N)nnc1-c1cnccn1` is 6.22%.
Regarding `COc1ccccc1C(=O)C1CCCN(C(=O)CCC(=O)c2ccccc2)C1` (centres unmarked), the “hERG current change (%, negative = inhibition) at 10uM” value is given as -14.9%.
Take `O=C(c1cccc(Cl)c1Cl)N1CCN(c2ccccn2)CC1`: the “hERG current change (%, negative = inhibition) at 10uM” value is -4.17%.
The figure for `CCOC(=O)Cc1csc(SCC(=O)NC2CCCCC2)n1` is 2.29%.
`COc1cccc(N2CCN(S(=O)(=O)c3ccc(-n4cnnn4)cc3)CC2)c1`: the “hERG current change (%, negative = inhibition) at 10uM” value came to 16.6%.
With `Cc1oc(-c2cccs2)nc1CS(=O)CC(=O)NCc1ccc2c(c1)OCO2` (centres unmarked), the “hERG current change (%, negative = inhibition) at 10uM” value is on record as -17.2%.
As to `Cc1ccccc1C(=O)NCC(c1ccco1)N1CCc2ccccc21` (centres unmarked), the “hERG current change (%, negative = inhibition) at 10uM” value was -55.7%.
As to `COc1ccccc1Oc1cc(-n2nc(C)cc2C)ncn1`, the “hERG current change (%, negative = inhibition) at 10uM” value was 11.5%.
Turning to `Cc1ccc(OCCSc2nc3ncnc(N)c3[nH]2)cc1`, the “hERG current change (%, negative = inhibition) at 10uM” value is reported as 4.83%.
`O=C(CCCCCn1c(=S)[nH]c2ccc(N3CCOCC3)cc2c1=O)NCc1ccc2c(c1)OCO2`: the “hERG current change (%, negative = inhibition) at 10uM” value was determined as 18.9%.
The figure for `CCCCCC(=O)Nc1cccc(C2=NOC3(C2)C[C@@H](C(N)=O)N(C(=O)C2(C)CC2)C3)c1` (some centres unmarked) is 19.1%.
On to `Cn1c(=O)n(C)c2cc(NC(=O)c3ccccc3NS(C)(=O)=O)ccc21`, for which the “hERG current change (%, negative = inhibition) at 10uM” value worked out at 6.12%.
As for `CSc1cccc(NC(=O)CN(C)S(=O)(=O)c2cnc[nH]2)c1`, the “hERG current change (%, negative = inhibition) at 10uM” value turned out to be 15.5%.
As to `CN(c1ccc(OCC(=O)OCC(=O)Nc2ccc(F)cc2)cc1)S(=O)(=O)c1ccc(Cl)cc1`, the “hERG current change (%, negative = inhibition) at 10uM” value was -59.2%.
The figure for `CC1Cc2cc(S(=O)(=O)N3CCCCC3C)ccc2N1C(=O)C1CCC1` (centres unmarked) is -17.3%.
The figure for `COc1ccc(C)cc1S(=O)(=O)N1CCN(c2cccc(C(F)(F)F)c2)CC1` is 14.1%; for `CCC(C)NC(=O)c1ccc(CSCc2cccc(F)c2)o1` (centres unmarked) it is -10.3%; for `O=C1CN(C(=O)c2ccc3nc(Cc4cccc(Cl)c4)oc3c2)CCN1` it is 5.02%.
The figure for `COc1ccc2c(C)c(C(=O)O)oc2c1` is 2.2%; for `CCCCCC(=O)NC(NC(=S)Nc1ccc(S(N)(=O)=O)cc1)C(Cl)(Cl)Cl` (centres unmarked) it is 18.8%.
For `CC(=O)N1CC(=O)Nc2ccc(Cl)cc2C1c1ccccc1` (centres unmarked), the “hERG current change (%, negative = inhibition) at 10uM” value came to 6.8%.
In the case of `CCCNC(=O)C1(CC2CC(c3ccccc3)=NO2)CCN(C(=O)c2ccccc2)CC1` (centres unmarked), the “hERG current change (%, negative = inhibition) at 10uM” value is given as -68.9%.
Consider `CCOC(=O)C1=C(C)NC(=O)NC1c1ccoc1` (centres unmarked), for which the “hERG current change (%, negative = inhibition) at 10uM” value is given as -1.07%.
On to `Cc1ccc(C2C(C#N)=C(N)Oc3c2oc(CO)cc3=O)o1` (centres unmarked), for which the “hERG current change (%, negative = inhibition) at 10uM” value came out at 14.3%.
With `O=C(O)c1ccc(Sc2nnc(-c3cccc(Br)c3)o2)c([N+](=O)[O-])c1`, the “hERG current change (%, negative = inhibition) at 10uM” value came to 7.75%.
On to `CCOC(=O)c1sc(NC(C)=O)nc1C`, for which the “hERG current change (%, negative = inhibition) at 10uM” value was -17%.
Turning to `COc1ccc2occ(C(=O)c3cccs3)c2c1`, the “hERG current change (%, negative = inhibition) at 10uM” value is reported as -5.06%.
In the case of `CS(=O)(=O)c1ccc2nc(NC(=O)c3ccc(Cn4cc(Br)cn4)o3)sc2c1`, the “hERG current change (%, negative = inhibition) at 10uM” value is -27.1%.
Regarding `COc1ccc(/C=C/C(=O)N(Cc2cccs2)C2CCS(=O)(=O)C2)cc1` (centres unmarked), the “hERG current change (%, negative = inhibition) at 10uM” value is on record as -48.6%.
For the compound `Cc1nc2cc(NS(=O)(=O)c3cccc(F)c3)ccc2s1`, the “hERG current change (%, negative = inhibition) at 10uM” value is on record as 7.97%.
As for `O=S(=O)(NCc1ccccc1)NCc1cccc(C(F)(F)F)c1`, the “hERG current change (%, negative = inhibition) at 10uM” value is given as 11.5%.
The figure for `O=C(NCCCN1CCCC1)C1CCN(C(=O)c2cc3sccc3n2Cc2ccc(F)cc2)CC1` is -11.1%; for `Br.Cc1nn(CCc2nc(-c3ccco3)cs2)c2[nH]c(=O)cc(C(F)(F)F)c12` it is -0.123%.
As to `O=C(O)C(Oc1ccc2ccccc2c1)c1ccccc1` (centres unmarked), the “hERG current change (%, negative = inhibition) at 10uM” value was 26.3%.
The figure for `Cc1ccnc(OC(C(=O)O)C(OCCc2ccccc2)(c2ccccc2)c2ccccc2)n1` (centres unmarked) is 23.2%; for `Cc1cc(C)cc(N=c2c([N+](=O)[O-])nn(-c3ccc(Cl)cc3)n2O)c1` it is 11.8%.
As for `CCCCCCCSc1nsc(N)n1`, the “hERG current change (%, negative = inhibition) at 10uM” value is on record as -10.6%.
Take `O=C(O)CSC1CC(=O)N(c2ccc(Br)cc2)C1=O` (centres unmarked): the “hERG current change (%, negative = inhibition) at 10uM” value was determined as 11.5%.
With `COc1ccc(C2C(C#N)=C(N)Oc3cc(O)ccc32)cc1OC` (centres unmarked), the “hERG current change (%, negative = inhibition) at 10uM” value is on record as -13%.
As to `CNC(=O)/C(C#N)=C/c1c(N2CC(C)OC(C)C2)nc2ccccn2c1=O` (centres unmarked), the “hERG current change (%, negative = inhibition) at 10uM” value is given as 1.43%.
`NC(=O)CC[C@H](NC(=O)c1ccc(F)cc1)C(=O)OCC(=O)Nc1ccc(N2CCOCC2)cc1`: the “hERG current change (%, negative = inhibition) at 10uM” value is reported as 14.8%.
With `Cc1ccc(S(=O)(=O)CCC(=O)OCc2nnc(-c3ccccc3Br)o2)cc1`, the “hERG current change (%, negative = inhibition) at 10uM” value is reported as -2.09%.
The figure for `O=C(c1ccc2c(c1)N(Cc1ccc(F)cc1)CCS2)N1CCOCC1` is -23.3%; for `O=C1/C(=C/c2ccc3c(c2)OCO3)N2CCC1CC2` it is -6.99%.
As for `O=c1cc(-c2ccco2)oc2c1ccc1ccccc12`, the “hERG current change (%, negative = inhibition) at 10uM” value worked out at 19.9%.
`CCc1noc(C)c1C(=O)N1CCCSC1=Nc1ccccc1Cl`: the “hERG current change (%, negative = inhibition) at 10uM” value is -17.1%.
On to `COCCOC(=O)c1c(C)oc2ccc(OC(=O)c3ccco3)cc12`, for which the “hERG current change (%, negative = inhibition) at 10uM” value is -7.34%.
The figure for `C(=N\Nc1ccc2nncn2n1)/c1ccco1` is 10.7%; for `O=C(CSCc1c(Cl)cccc1Cl)NCc1cccnc1` it is -1.4%.
Consider `Cc1ccc(-n2ncc3c2CCCC3NC(=O)CCN2CCCC2=O)cc1C` (centres unmarked), for which the “hERG current change (%, negative = inhibition) at 10uM” value is on record as 6.09%.
Take `OCCNC(=S)Nc1cccc(Cl)c1Cl`: the “hERG current change (%, negative = inhibition) at 10uM” value is 11.7%.
The figure for `CN(C)CCCOC(=O)N1c2ccccc2C=Cc2ccccc21.Cl` is 10.2%.
On to `O=C(CCCN1C(=O)c2ccccc2C1=O)Nc1ccc(S(=O)(=O)N2CCOCC2)cc1`, for which the “hERG current change (%, negative = inhibition) at 10uM” value came to 2.89%.
With `CC(C)CC(COCc1ccc(F)cc1)N1CCN(C(=O)c2cccc(C(F)(F)F)c2)CCC1=O` (centres unmarked), the “hERG current change (%, negative = inhibition) at 10uM” value is -46.9%.
The figure for `O=C1CCCC/C1=C/Nc1cccc(C(F)(F)F)c1` is 11.7%.
With `O=C(/C=C/c1ccc2ccccc2c1)c1ccoc1`, the “hERG current change (%, negative = inhibition) at 10uM” value amounted to 8.22%.

For the origin of these results see paper PMC4336329 (PLoS ONE, 2015).
